According to publication PMC9911399, “Two distinct binding modes provide the RNA-binding protein RbFox with extraordinary sequence specificity”:
Positions count from the first letter of the chain named. This is one part of the list.

T1: RBFOX1 RRM (Homo sapiens, UniProt Q9NWB1 109-208)
T1 sequence: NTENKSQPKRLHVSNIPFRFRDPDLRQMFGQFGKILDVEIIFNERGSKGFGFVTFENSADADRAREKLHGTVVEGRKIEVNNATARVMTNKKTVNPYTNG

B1: AGAUCGA (DNA:RNA)
RNA: GGGAGACCGGAAUUCAGAUUGUCCAGAUCGAUUAAAUCCCGUCGUAGCCACCA
DNA 1: CAATCTGAATTCCGGTCTCCC
DNA 2: TGGTGGCTACGACGGGATT
B2: GUAUCGG (DNA:RNA)
RNA: B1 RNA with A25G, G26U, A31G
DNA 1: CAATCTGAATTCCGGTCTCCC
DNA 2: TGGTGGCTACGACGGGATT
B3: AACGUUC (DNA:RNA)
RNA: B1 RNA with G26A, A27C, U28G, C29U, G30U, A31C
DNA 1: CAATCTGAATTCCGGTCTCCC
DNA 2: TGGTGGCTACGACGGGATT
B4: AUCUCGA (DNA:RNA)
RNA: B1 RNA with G26U, A27C
DNA 1: CAATCTGAATTCCGGTCTCCC
DNA 2: TGGTGGCTACGACGGGATT
B5: CAGCAUC (DNA:RNA)
RNA: GGGAGACCGGAAUUCAGAUUGUCCCAGCAUCUUAAAUCCCGUCGUAGCCACCA
DNA 1: CAATCTGAATTCCGGTCTCCC
DNA 2: TGGTGGCTACGACGGGATT
B6: ACGCUGC (DNA:RNA)
RNA: B5 RNA with C25A, A26C, A29U, U30G
DNA 1: CAATCTGAATTCCGGTCTCCC
DNA 2: TGGTGGCTACGACGGGATT
B7: UAGUAGC (DNA:RNA)
RNA: B5 RNA with C25U, C28U, U30G
DNA 1: CAATCTGAATTCCGGTCTCCC
DNA 2: TGGTGGCTACGACGGGATT
B8: CGAUUUA (DNA:RNA)
RNA: B1 RNA with A25C, C29U, G30U
DNA 1: CAATCTGAATTCCGGTCTCCC
DNA 2: TGGTGGCTACGACGGGATT
B9: AUUAAGC (DNA:RNA)
RNA: B1 RNA with G26U, A27U, U28A, C29A, A31C
DNA 1: CAATCTGAATTCCGGTCTCCC
DNA 2: TGGTGGCTACGACGGGATT
B10: UAGCACA (DNA:RNA)
RNA: B5 RNA with C25U, U30C, C31A
DNA 1: CAATCTGAATTCCGGTCTCCC
DNA 2: TGGTGGCTACGACGGGATT
B11: GUCACGU (DNA:RNA)
RNA: B1 RNA with A25G, G26U, A27C, U28A, A31U
DNA 1: CAATCTGAATTCCGGTCTCCC
DNA 2: TGGTGGCTACGACGGGATT
B12: UGUAACA (DNA:RNA)
RNA: B1 RNA with A25U, A27U, U28A, C29A, G30C
DNA 1: CAATCTGAATTCCGGTCTCCC
DNA 2: TGGTGGCTACGACGGGATT
B13: AAACUGG (DNA:RNA)
RNA: B1 RNA with G26A, U28C, C29U, A31G
DNA 1: CAATCTGAATTCCGGTCTCCC
DNA 2: TGGTGGCTACGACGGGATT
B14: GGUAAUA (DNA:RNA)
RNA: B1 RNA with A25G, A27U, U28A, C29A, G30U
DNA 1: CAATCTGAATTCCGGTCTCCC
DNA 2: TGGTGGCTACGACGGGATT
B15: UAGGCGG (DNA:RNA)
RNA: B1 RNA with A25U, G26A, A27G, U28G, A31G
DNA 1: CAATCTGAATTCCGGTCTCCC
DNA 2: TGGTGGCTACGACGGGATT
B16: GAUUGGA (DNA:RNA)
RNA: B1 RNA with A25G, G26A, A27U, C29G
DNA 1: CAATCTGAATTCCGGTCTCCC
DNA 2: TGGTGGCTACGACGGGATT
B17: CACACAC (DNA:RNA)
RNA: B5 RNA with G27C, C28A, A29C, U30A
DNA 1: CAATCTGAATTCCGGTCTCCC
DNA 2: TGGTGGCTACGACGGGATT
B18: GCCCUCA (DNA:RNA)
RNA: B1 RNA with A25G, G26C, A27C, U28C, C29U, G30C
DNA 1: CAATCTGAATTCCGGTCTCCC
DNA 2: TGGTGGCTACGACGGGATT
B19: AAAGCUA (DNA:RNA)
RNA: B1 RNA with G26A, U28G, G30U
DNA 1: CAATCTGAATTCCGGTCTCCC
DNA 2: TGGTGGCTACGACGGGATT
B20: AGAUUGG (DNA:RNA)
RNA: B1 RNA with C29U, A31G
DNA 1: CAATCTGAATTCCGGTCTCCC
DNA 2: TGGTGGCTACGACGGGATT
B21: UCGAGUG (DNA:RNA)
RNA: B5 RNA with C25U, A26C, C28A, A29G, C31G
DNA 1: CAATCTGAATTCCGGTCTCCC
DNA 2: TGGTGGCTACGACGGGATT
B22: UCCCUAU (DNA:RNA)
RNA: B5 RNA with C25U, A26C, G27C, A29U, U30A, C31U
DNA 1: CAATCTGAATTCCGGTCTCCC
DNA 2: TGGTGGCTACGACGGGATT
B23: AAUCUCU (DNA:RNA)
RNA: B5 RNA with C25A, G27U, A29U, U30C, C31U
DNA 1: CAATCTGAATTCCGGTCTCCC
DNA 2: TGGTGGCTACGACGGGATT
B24: GAGUAAG (DNA:RNA)
RNA: B5 RNA with C25G, C28U, U30A, C31G
DNA 1: CAATCTGAATTCCGGTCTCCC
DNA 2: TGGTGGCTACGACGGGATT
B25: GAAAGAA (DNA:RNA)
RNA: B1 RNA with A25G, G26A, U28A, C29G, G30A
DNA 1: CAATCTGAATTCCGGTCTCCC
DNA 2: TGGTGGCTACGACGGGATT
B26: GCGGGAA (DNA:RNA)
RNA: B1 RNA with A25G, G26C, A27G, U28G, C29G, G30A
DNA 1: CAATCTGAATTCCGGTCTCCC
DNA 2: TGGTGGCTACGACGGGATT
B27: CUUAGAC (DNA:RNA)
RNA: B5 RNA with A26U, G27U, C28A, A29G, U30A
DNA 1: CAATCTGAATTCCGGTCTCCC
DNA 2: TGGTGGCTACGACGGGATT
B28: GAUUUCU (DNA:RNA)
RNA: B1 RNA with A25G, G26A, A27U, C29U, G30C, A31U
DNA 1: CAATCTGAATTCCGGTCTCCC
DNA 2: TGGTGGCTACGACGGGATT
B29: UAUCACC (DNA:RNA)
RNA: B5 RNA with C25U, G27U, U30C
DNA 1: CAATCTGAATTCCGGTCTCCC
DNA 2: TGGTGGCTACGACGGGATT
B30: AUUUACC (DNA:RNA)
RNA: B1 RNA with G26U, A27U, C29A, G30C, A31C
DNA 1: CAATCTGAATTCCGGTCTCCC
DNA 2: TGGTGGCTACGACGGGATT
B31: AUGAGUU (DNA:RNA)
RNA: B5 RNA with C25A, A26U, C28A, A29G, C31U
DNA 1: CAATCTGAATTCCGGTCTCCC
DNA 2: TGGTGGCTACGACGGGATT

Target: T1, RBFOX1 RRM
Assay: EMSA; HiTS-Eq, 1 nM pool, 10 min; buffer printed only for the single-RNA assays: 10 mM Tris pH 7.5, 150 mM NaCl, 3.4 mM EDTA, 0.001% NP-40, 30 C
Settings: tags: His6 N-terminal (pET28a); label: 5' 32P
Method in brief: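 Purified RbFox RRM, wild type or mutant, was incubated for 10 min in 50 µL with 1 nM of a 5′-radiolabelled RNA pool carrying 7 randomized nucleotides, whose flanks were annealed to DNA oligonucleotides, over a series of increasing protein concentrations. Unbound RNA was resolved on 8% native PAGE, cut out, reverse-transcribed, barcoded by PCR and sequenced on an Illumina HiSeq 2500. Relative association constants were derived from changes in read counts for each RNA species versus the control reaction and normalised to the cognate motif.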

Question: With B1 as the binder, how does the binding signal read?
Answer: 0.013 KA relative to UGCAUGU

Question: With B2 as the binder, how does the binding signal read?
Answer: 0.00781 KA relative to UGCAUGU

Question: For B3, which binding signal is on record?
Answer: 0.00687 KA relative to UGCAUGU

Question: How did the binding signal turn out when B4 was run?
Answer: 0.0108 KA relative to UGCAUGU

Question: Which binding signal does the source give for B5 here?
Answer: 0.0124 KA relative to UGCAUGU

Question: For B6, which binding signal is on record?
Answer: 0.0121 KA relative to UGCAUGU

Question: For B7, which binding signal is on record?
Answer: 0.0177 KA relative to UGCAUGU

Question: With B8 as the binder, how does the binding signal read?
Answer: 0.00619 KA relative to UGCAUGU

Question: With B9 as the binder, how does the binding signal read?
Answer: 0.00381 KA relative to UGCAUGU

Question: Which binding signal does the source give for B10 here?
Answer: 0.00585 KA relative to UGCAUGU

Question: B11 was tested. Which binding signal did it give?
Answer: 0.00913 KA relative to UGCAUGU

Question: For B12, which binding signal is on record?
Answer: 0.00979 KA relative to UGCAUGU

Question: B13 was tested. Which binding signal did it give?
Answer: 0.0079 KA relative to UGCAUGU

Question: For B14, which binding signal is on record?
Answer: 0.000922 KA relative to UGCAUGU

Question: How did the binding signal turn out when B15 was run?
Answer: 0.0185 KA relative to UGCAUGU

Question: For B16, which binding signal is on record?
Answer: 0.00802 KA relative to UGCAUGU

Question: With B17 as the binder, how does the binding signal read?
Answer: 0.00162 KA relative to UGCAUGU

Question: With B18 as the binder, how does the binding signal read?
Answer: 0.0103 KA relative to UGCAUGU

Question: B19 was tested. Which binding signal did it give?
Answer: 0.00126 KA relative to UGCAUGU

Question: B20 was tested. Which binding signal did it give?
Answer: 0.0125 KA relative to UGCAUGU

Question: How did the binding signal turn out when B21 was run?
Answer: 0.0205 KA relative to UGCAUGU

Question: B22 was tested. Which binding signal did it give?
Answer: 0.00588 KA relative to UGCAUGU

Question: With B23 as the binder, how does the binding signal read?
Answer: 0.00583 KA relative to UGCAUGU

Question: B24 was tested. Which binding signal did it give?
Answer: 0.0126 KA relative to UGCAUGU

Question: How did the binding signal turn out when B25 was run?
Answer: 0.00623 KA relative to UGCAUGU

Question: With B26 as the binder, how does the binding signal read?
Answer: 0.0202 KA relative to UGCAUGU

Question: For B27, which binding signal is on record?
Answer: 0.00735 KA relative to UGCAUGU

Question: How did the binding signal turn out when B28 was run?
Answer: 0.0174 KA relative to UGCAUGU

Question: How did the binding signal turn out when B29 was run?
Answer: 0.00443 KA relative to UGCAUGU

Question: How did the binding signal turn out when B30 was run?
Answer: 0.00374 KA relative to UGCAUGU

Question: With B31 as the binder, how does the binding signal read?
Answer: 0.00885 KA relative to UGCAUGU
